Test results: PubChem BioAssay AID360 (National Center for Advancing Translational Sciences (NCATS), 2006)
Out of some 48,000 compounds screened, about 550 (1.1%) were called active. Not shown: some 4% with an inconclusive outcome. No stated cut-off is given here; in the data, active means potency below about 15 µM; inconclusive means mostly about 16 µM to 33 µM; inactive means weaker than that. The list shows a part of the results.

target: Lysosomal acid glucosylceramidase (Homo sapiens) (UniProt P04062); experiment: Glucocerebrosidase; conditions: purified enzyme, resorufin glucoside fluorescence (screen aimed at inhibitors), 20 min; series mostly up to 77 µM;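 further: the screen sought inhibitors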
Chain of UniProt P04062 (P04062 whole entry, looked up): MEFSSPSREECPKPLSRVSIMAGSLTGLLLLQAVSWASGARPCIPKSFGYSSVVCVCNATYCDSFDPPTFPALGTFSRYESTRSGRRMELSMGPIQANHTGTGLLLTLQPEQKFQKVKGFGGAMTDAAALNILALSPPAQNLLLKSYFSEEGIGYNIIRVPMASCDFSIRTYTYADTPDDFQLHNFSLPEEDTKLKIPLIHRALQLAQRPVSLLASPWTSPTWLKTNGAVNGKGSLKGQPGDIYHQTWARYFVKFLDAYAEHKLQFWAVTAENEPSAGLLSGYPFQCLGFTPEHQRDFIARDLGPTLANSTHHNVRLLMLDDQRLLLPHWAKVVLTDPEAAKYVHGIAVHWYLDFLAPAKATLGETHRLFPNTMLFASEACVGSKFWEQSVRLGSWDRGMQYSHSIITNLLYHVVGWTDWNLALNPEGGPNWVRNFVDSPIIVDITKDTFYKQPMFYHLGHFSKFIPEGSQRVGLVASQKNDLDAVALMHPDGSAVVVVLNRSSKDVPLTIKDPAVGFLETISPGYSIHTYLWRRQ
How it was run: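 Normal human glucocerebrosidase (0.2 nM final) was assayed with resorufin β-D-glucopyranoside (30 uM final) in 50mM citric acid/KH2PO4, 10mM sodium taurocholate, 0.01% tween-20, pH 5.9. Compounds were titrated; fluorescence (Ex 548, Em 600) read after 20 min at RT.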
Potency means the concentration at half of the fitted maximal effect.

Potency, active:
CC(C)CCNc1nc(N2CCCC2)c2c(c1C#N)CCN(C)C2 12.7 µM

Potency, inactive:
COC(=O)c1nnn(CC(=O)Nc2cccc(Cl)c2)c1C(=O)OC > 76.9 µM
CCCC(c1nnnn1CS(=O)(=O)c1ccc(C)cc1)N1CCN(c2ccc(F)cc2)CC1 (stereo unspecified) > 76.9 µM
COc1ccccc1N(CN1CCCC1=O)C(=O)c1c(F)cccc1Cl > 76.9 µM
CCOC(=O)c1snc2c(=O)[nH]cnc12 > 76.9 µM
CCN(CC)c1ccc(NC(=O)c2c(OC)cccc2OC)c(C)c1 > 76.9 µM
CCn1c(CSc2nc(C)cs2)nc2cc(S(=O)(=O)N(C)C)ccc21 > 76.9 µM
CCOC(=O)N1CCC(N(CCOC)C(=O)Nc2ccc(Cl)c(Cl)c2)CC1 > 76.9 µM
O=c1nc2c(-c3ccccc3F)n[nH]n2c2ccccc12 > 76.9 µM
NC(=O)c1ccsc1NC(=O)CSc1nc2ccccc2c(=O)n1CCCO > 76.9 µM
CCOC(=O)Cc1cnc(NC(=O)Cn2nnc(-c3ccc(OCC)cc3)n2)s1 > 76.9 µM
Cc1cc(C(=O)Nc2nnc(C(F)(F)F)s2)no1 > 76.9 µM
CCOC(=O)c1nn(-c2ccc3c(c2)OCO3)cc1O > 76.9 µM
Cc1ccc(SCCNC(=O)CN(c2ccc3c(c2)OCO3)S(C)(=O)=O)cc1 > 76.9 µM
O=C(CCCN=C1NS(=O)(=O)c2ccccc21)OCC(=O)N1CCc2ccccc21 > 76.9 µM
Cc1ccc(C)c(NC2=NS(=O)(=O)c3ccccc32)c1
c1ccc(OCCOc2ncnc3sccc23)cc1 > 76.9 µM
COC(=O)CC1Nc2ccccc2SC1=O (stereo unspecified) > 76.9 µM
CN(c1cccc(NS(=O)(=O)c2cccs2)c1)S(C)(=O)=O > 76.9 µM
Cc1occc1-c1nnc(SCC(=O)N2CC(=O)Nc3ccccc32)n1CC(C)C > 76.9 µM
CNC(=O)Nc1cccc(C(F)(F)F)c1 > 76.9 µM
COc1c(Br)cc(Br)cc1/C=N/n1c(C)nnc1C > 76.9 µM
Cc1ccc(S(=O)(=O)NCCCCCC(=O)Nc2nccs2)cc1 > 76.9 µM
COc1cc2[nH]c(=O)n(Cc3ccc(C(=O)NCC4CCCO4)cc3)c(=O)c2cc1OC (stereo unspecified) > 76.9 µM
Cc1ccc(C(=O)CCC2CCCC2=O)cc1 (stereo unspecified) > 76.9 µM
Cc1ccc(CN(C)C(=O)C2CCCN2C(=O)c2cccs2)o1 (stereo unspecified) > 76.9 µM
Cc1ccnc(SCCn2c(N3CC(C)CC(C)C3)nc3c2c(=O)n(C)c(=O)n3C)n1 (stereo unspecified) > 76.9 µM
Cc1cccc2cc(COC(=O)c3ccco3)c(=O)[nH]c12 > 76.9 µM
C/C(N)=C(/C#N)C(=O)CSc1nnc(-c2ccc(OC(F)F)cc2)o1 > 76.9 µM
O=C(NCC1CCCO1)c1cnn2c1NC(c1ccccc1)CC2C(F)(F)F (stereo unspecified) > 76.9 µM
NC(=O)Cn1c(=O)n(CCCC(=O)NC2CCN(Cc3ccccc3)CC2)c(=O)c2ccccc21 > 76.9 µM
O=C1c2ccccc2CC1Sc1nnc(-c2ccncc2)o1 (stereo unspecified) > 76.9 µM
COc1ccc(NC(=O)c2coc3ccccc23)cc1OC > 76.9 µM
Cc1ccc2cc(C(c3nnnn3C(C)(C)C)N3CCCCCC3)c(=O)[nH]c2c1 (stereo unspecified) > 76.9 µM
CCN1C(=O)CC(N2CCC(Cc3ccccc3)CC2)C1=O (stereo unspecified) > 76.9 µM
CSc1nsc(SCC(=O)Nc2cccc(C(C)=O)c2)n1 > 76.9 µM
CC(C)n1c(SCc2cc(=O)[nH]c3ccccc23)nc2c1c(=O)n(C)c(=O)n2C > 76.9 µM
COc1ccc(-n2nc3c(c2NC(=O)c2cc4ccccc4oc2=O)CS(=O)(=O)C3)cc1 > 76.9 µM
O=c1cc(CSc2nnc(-c3ccco3)o2)c2ccccc2[nH]1 > 76.9 µM
COCCOC(=O)CC1=NC(=O)CS1 > 76.9 µM
O=C(CSc1nnc(Cc2ccccc2)o1)NC1CCCCC1 > 76.9 µM
CCOC(=O)CNC(=O)CSc1nnc(Cn2cnc3ccccc32)n1C > 76.9 µM
Cc1nn(-c2ccccc2)c2[nH]c(=O)c(CNCC3CCCO3)cc12 (stereo unspecified) > 76.9 µM
CC1CN(S(=O)(=O)c2ccc(NC(=O)CCCN3C(=O)c4ccccc4C3=O)cc2)CC(C)O1 (stereo unspecified) > 76.9 µM
Fc1ccc(-c2nnc(CN3CCC(c4nc5ccccc5s4)CC3)o2)cc1 > 76.9 µM
O=C(Cc1cccs1)N1CCC(c2nc3c(nnn3Cc3ccccc3)c(=O)[nH]2)CC1 > 76.9 µM
Clc1ccccc1-c1nnn(Cc2ccc(-c3nn[nH]n3)cc2)n1 > 76.9 µM
COCCCNC(=O)CCc1nc2cccnc2n1Cc1ccccc1 > 76.9 µM
O=C(CSc1ccccn1)Nc1ccc(Br)cn1 > 76.9 µM
CCOC(=O)CCCCC(=O)c1[nH]c(=O)[nH]c1CSc1nc(C)cc(=O)[nH]1 > 76.9 µM
COCCNS(=O)(=O)c1cc(OC)c(Cl)cc1Cl > 76.9 µM
CCOC(=O)c1ccc(NC(=O)c2ccc(NS(C)(=O)=O)cc2)cc1 > 76.9 µM
COc1cc(S(=O)(=O)N2CCOCC2)ccc1F > 76.9 µM
Cc1c(CN(C)C(=O)CSc2nc(-c3ccco3)cc(C(F)(F)F)n2)cnn1C > 76.9 µM
Cc1nnc(SC(C)C(=O)Nc2ccc(Cl)cn2)n1Cc1ccccc1 (stereo unspecified) > 76.9 µM
CN(c1ccccc1C(=O)NCC1CCCO1)S(C)(=O)=O (stereo unspecified) > 76.9 µM
CC1(C)Cc2nc(N)c(=O)sc2C1 > 76.9 µM
CCCOC1(NC(=O)c2ccccc2)C(C)=CC(=O)C=C1C > 76.9 µM
COCCN(CC(=O)NCC1CCCO1)C(=O)CCC(=O)Nc1cc(C)on1 (stereo unspecified) > 76.9 µM
O=C(O)c1[nH]nc2c1COc1ccccc1-2 > 76.9 µM
COCCNC(=O)CN1CCC(NC(=O)Nc2ccc(C(F)(F)F)cc2)CC1 > 76.9 µM
CCCCC(=NCCO)C1=C(O)C(C(=O)OC)C(C)(C)CC1=O (stereo unspecified) > 76.9 µM
CCOC(=O)c1cccc(NC(=O)CSc2nnc(COc3ccc(Cl)cc3)o2)c1 > 76.9 µM
O=C(NCCN1CCOCC1)C1CC(=O)N(c2ccc(F)c(Cl)c2)C1 (stereo unspecified) > 15.4 µM
O=C(CSc1nc(-c2ccccc2)cc(=O)[nH]1)NCc1ccc2c(c1)OCO2 > 76.9 µM
O=C(CS(=O)(=O)c1cn(Cc2cccc(F)c2)c2ccccc12)N1CCOCC1 > 76.9 µM
COc1cccc(OCc2nnc(SCC(=O)NCc3ccco3)n2CCc2ccccc2)c1
Cc1ccc(C(C(=O)NC2CCCCC2)N2CCCC2)cc1 (stereo unspecified) > 76.9 µM
C=CCn1c(SC(C)C(=O)NC2(C#N)CCCCC2)nnc1-c1ccc(OC)cc1 (stereo unspecified) > 76.9 µM
COc1cccc(C2NC(CC(C)C)(C(=O)O)C3C(=O)N(Cc4ccccc4)C(=O)C23)c1O (stereo unspecified) > 76.9 µM
CCCC(=O)Nc1c2c(nn1-c1ccc(OC)cc1)CS(=O)C2 (stereo unspecified) > 76.9 µM
CCOC(=O)c1cnn(CCOC(=O)C(C)(C)C)c1NC(=O)C(C)(C)C > 76.9 µM
CCC(=O)Nc1ccc(NC(=O)CSc2nnnn2C(C)C)cc1 > 76.9 µM
CCCc1nc2ccccc2c(=O)n1/N=C/c1ccc(O)c(O)c1 > 76.9 µM
O=C(NCc1ccccc1Br)c1ccco1 > 76.9 µM
COc1c(C)cccc1C(=O)Nc1ccc(N2CCN(S(C)(=O)=O)CC2)cc1 > 76.9 µM
CCc1ccccc1NC(=O)C1CCCN(S(=O)(=O)c2c(C)noc2C)C1 (stereo unspecified) > 76.9 µM
CCC(=O)NCCSc1c[nH]c2ccccc12 > 76.9 µM
O=C(C1=COCCO1)N1CCN(C(c2ccccc2)c2ccccc2)CC1 > 76.9 µM
CCOC(=O)c1cccnc1SCC(=O)NC(C)CC (stereo unspecified) > 76.9 µM
COCC(=O)N(C)C1(c2nnnn2CCOC(=O)Nc2ccc(Cl)cc2)CCCC1 > 76.9 µM
OCCN1CCN(c2ncnc3c2sc2nc(N4CCOCC4)c4c(c23)CCC4)CC1 > 76.9 µM
CCN(CC)CCCNc1nnc(C)c(=O)[nH]1 > 76.9 µM
CCC1Oc2ccc(C)cc2N(CC(=O)NCCN2C(C)CCCC2C)C1=O (stereo unspecified) > 76.9 µM
CCC1CCc2sc(C(=O)O)cc2C1 (stereo unspecified) > 76.9 µM
COc1cc(C2C(C(=O)c3ccc(C)o3)=C(O)C(=O)N2c2cc(C)on2)ccc1O (stereo unspecified) > 76.9 µM
Cc1ccc(OCC(=O)N2CCN(C(=O)CCC3CCCC3)CC2)cc1 > 76.9 µM
Cc1nn(-c2ccc3nnc(Br)n3n2)c(C)c1Br > 76.9 µM
CC(C)CC(=O)Nc1ccccc1N1CCOCC1 > 76.9 µM
CCSc1nc2cc(OC)c(OC)cc2c(=O)n1CC > 76.9 µM
CCOC(=O)C1C(=O)NC(N2CCN(Cc3ccccc3)CC2)=NC1c1ccco1 (stereo unspecified) > 76.9 µM
